Data as given in publication PMC4336329 (PLoS ONE, 2015).
The campaign covered roughly 310,000 compounds. About 14,000 (4.5%) showed an effect of 50% or more. Effects have a minus sign here. The list shows a part of the results.

Molecular target: human ether-à-go-go-related gene (hERG) potassium channel (human, UniProt Q12809)
Assay: primary screen, population patch clamp on CHO cells stably expressing hERG
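Also: peak tail current of the secondary pulse compared with the same well before compound.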

Chain of human ether-à-go-go-related gene (hERG) potassium channel (Q12809 whole entry, looked up): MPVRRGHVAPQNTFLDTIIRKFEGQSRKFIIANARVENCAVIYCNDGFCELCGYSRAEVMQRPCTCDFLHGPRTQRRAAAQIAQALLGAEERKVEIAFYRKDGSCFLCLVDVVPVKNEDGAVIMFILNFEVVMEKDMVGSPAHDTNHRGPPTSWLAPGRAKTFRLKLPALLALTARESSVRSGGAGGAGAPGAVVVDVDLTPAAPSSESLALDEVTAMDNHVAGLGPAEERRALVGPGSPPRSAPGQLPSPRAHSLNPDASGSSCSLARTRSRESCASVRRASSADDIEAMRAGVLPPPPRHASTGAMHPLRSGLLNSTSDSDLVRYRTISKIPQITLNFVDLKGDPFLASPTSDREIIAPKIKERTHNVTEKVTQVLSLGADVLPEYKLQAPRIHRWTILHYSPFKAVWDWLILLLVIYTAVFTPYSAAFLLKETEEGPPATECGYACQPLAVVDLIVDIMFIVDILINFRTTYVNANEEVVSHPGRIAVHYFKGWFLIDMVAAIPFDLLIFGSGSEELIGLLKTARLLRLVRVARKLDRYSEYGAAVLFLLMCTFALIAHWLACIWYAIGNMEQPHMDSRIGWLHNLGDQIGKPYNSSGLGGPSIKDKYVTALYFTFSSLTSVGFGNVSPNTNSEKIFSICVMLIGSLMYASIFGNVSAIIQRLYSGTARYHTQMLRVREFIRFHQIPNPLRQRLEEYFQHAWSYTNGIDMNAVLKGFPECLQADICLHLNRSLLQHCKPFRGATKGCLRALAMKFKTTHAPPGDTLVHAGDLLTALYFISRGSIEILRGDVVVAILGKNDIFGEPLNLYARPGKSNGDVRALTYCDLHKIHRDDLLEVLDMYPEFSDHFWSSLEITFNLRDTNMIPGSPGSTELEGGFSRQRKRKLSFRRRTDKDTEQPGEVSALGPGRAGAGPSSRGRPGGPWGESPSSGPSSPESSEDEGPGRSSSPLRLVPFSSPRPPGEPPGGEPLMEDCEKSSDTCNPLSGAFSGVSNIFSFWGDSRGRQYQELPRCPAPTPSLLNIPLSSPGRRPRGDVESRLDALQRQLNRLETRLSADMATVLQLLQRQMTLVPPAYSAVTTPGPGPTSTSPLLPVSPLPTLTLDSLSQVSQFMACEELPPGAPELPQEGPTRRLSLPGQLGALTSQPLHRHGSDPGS

| Structure (SMILES) | hERG current change (%, negative = inhibition) at 10uM [%] |
| --- | --- |
| Cc1cc(C=O)c(C)n1C1CC1 | 8.18 |
| COC(=O)[C@H](Cc1ccccc1)NC(=O)NCc1ccccc1OC | 12.2 |
| NC(N)=NC(=O)c1nc(Cl)c(N)nc1N | -3.88 |
| O=C(Nc1cccc(Br)c1)c1ccc2c(c1)SC1=NS(=O)(=O)CCN12 | -7.96 |
| Cc1ccc(-c2nn(-c3ccccc3)c3[nH]c(=O)c(CNCc4ccccc4)cc23)cc1 | 21.1 |
| COc1cc2c(cc1OC)C(c1ccco1)CC(=O)N2 (centres unmarked) | 3.25 |
| COC(=O)c1oc2c(c1C)C(=O)CC(C)(C)C2 | 15.8 |
| COC(=O)C1=C(C)N(CCCC(=O)O)C(=O)NC1c1ccccc1OS(=O)(=O)c1ccccc1[N+](=O)[O-] (centres unmarked) | 15.3 |
| Cc1nc(N2CCN(C)CC2)c2c(C)c(C(=O)Nc3ccc(F)cc3)sc2n1 | -47.9 |
| O=c1cc(N2CCN(c3ccccc3F)CC2)[nH]c(=O)n1-c1ccc(Br)cc1 | -16.7 |
| O=C(CCCOc1ccccc1)N1CCN(S(=O)(=O)c2ccc(Cl)cc2)CC1 | 20.9 |
| COc1ccc(C(=O)Nc2ccc(N3CCN(C(=O)c4cccs4)CC3)cc2)cc1Br | -47.2 |
| Cc1ccccc1NC(=S)NCc1ccccc1 | -7.65 |
| COc1cccc(NC(=O)Nc2ccccc2SC)c1 | -3.85 |
| COc1cc(OC)c(CN2CCC(Cc3ccccc3)CC2)cc1Br | -70.9 |
| CN=C1c2c(-c3ccccc3)c3cc(OC)ccc3n2CCN1C.Cl | -62.6 |
| Cc1csc(-c2cnn(-c3ccccc3)c2NC(=O)c2cccc(F)c2)n1 | -1.49 |
| O=C(NCc1ccccc1Cl)C1CCN(S(=O)(=O)c2ccc(F)cc2)CC1 | -45.6 |
| Cc1cccc2nc(CSCc3ccco3)cn12 | -2.01 |

| Structure (SMILES) | hERG current change (%, negative = inhibition) at 10uM [%] |
| --- | --- |
| Cc1ccc(NC(=O)CCn2c(=O)oc3ccccc32)cc1 | -3.19 |
| CCc1c(O)nc(SCC(=O)Nc2ccccc2OC)n(-c2ccccc2C)c1=O | -6.05 |
| O=C(CN(C(=O)Cn1nnc(-c2ccccc2F)n1)c1cccc2c1CCCC2)NCc1ccccc1 | 9.51 |
| COc1cc(C)c(Br)cc1S(=O)(=O)NCc1ccccc1 | 12.9 |
| CN1CCN(CCCNC(=O)c2ccc3c(c2)N(Cc2ccccc2)CCS3)CC1 | -23.6 |
| COc1ccc(N2CC(C(=O)N/N=C/c3ccccc3)CC2=O)cc1 (centres unmarked) | -33.1 |
| COc1cccc(CNC(=O)CSc2nc3ccc(C)cc3[nH]2)c1 | 6.22 |
| Cc1ccc(OCCC(=O)OCC(=O)NC(=O)NC2CCCCC2)cc1 | 14.9 |
| CCOc1ccccc1N1CCN(S(=O)(=O)c2ccc(F)c(F)c2)CC1 | -20.8 |
| Cc1ccc(C(=O)N2CCN(c3cc4c(cc3[N+](=O)[O-])n(C)c(=O)n4C)CC2)cc1 | -66.6 |
| COc1ccc(/C=C2\N=C3CCCCCN3C2=O)cc1OC | 11 |
| O=C1c2cccnc2C(=O)N1Cc1ccc(F)cc1S(=O)(=O)NCc1ccco1 | -27.1 |
| Cc1ccc(C(=O)c2cc([N+](=O)[O-])ccc2N2CCCCC2)c(C)c1 | 5.96 |
| CCC(C)NC(=S)Nc1ccc2nc(N3CCOCC3)cc(C)c2c1 (centres unmarked) | 5.86 |
| O=[N+]([O-])c1ccc(S(=O)(=O)Nc2ccc(-c3ccc(N4CCCC4)nn3)cc2)cc1 | -8.67 |
| O=C(Cn1cnc2ccccc2c1=O)Nc1ccc(S(=O)(=O)N2CCOCC2)cc1 | 16.2 |
| COc1ccccc1NC(=O)CS(=O)(=O)c1cccc2nsnc12 | 0.279 |
| O=C(Cn1cc(C(=O)C2CC2)c2ccccc21)Nc1ccc(F)cc1 | -20.5 |
| CCCCn1c(-c2ccccc2)nc2c(=O)n(C)c(=O)[nH]c21 | 18.3 |

| Structure (SMILES) | hERG current change (%, negative = inhibition) at 10uM [%] |
| --- | --- |
| Nc1cc(N)nc(SCC(=O)NCc2ccco2)n1 | 9.13 |
| CC(=O)Nc1cc(NC(C)=O)cc(C(=O)OCC(=O)c2ccc3c(c2)OCO3)c1 | 7.16 |
| CS(=O)(=O)N(CC(=O)NN=C1CCCCCC1)c1ccc(Oc2ccccc2)cc1 | 13.7 |
| CCOC(=O)c1cc(-c2ccc(N3CCOCC3)cc2)nn1-c1ccccc1 | -48.9 |
| O=C(Nc1ccc(-n2cccc2)cc1)C1CC1 | 11.8 |
| CCOC(=O)N1CCC(NS(=O)(=O)c2ccc(NC(C)=O)c(Cl)c2)CC1 | 20.2 |
| Cc1nn(Cc2ccc(F)cc2)c(C)c1NC(=O)CCCn1nc([N+](=O)[O-])cc1C | -1.82 |
| N#Cc1ccc(OCC(O)CN2CCN(CC(O)COc3ccc(C#N)cc3)CC2)cc1 (centres unmarked) | -86.1 |
| CCCS(=O)(=O)N1CCN=C1SCc1cccc2ccccc12 | 0.766 |
| O=C(CC1SC(N2CCCCC2)=NC1=O)Nc1cccc(C(=O)O)c1 (centres unmarked) | 8.24 |
| CCCCOc1ccc(C(=O)N/C(=C\c2cccc([N+](=O)[O-])c2)C(=O)OC(C)C)cc1 | -9.93 |
| O=C(c1ccc(S(=O)(=O)N2CCOCC2)cc1)N1CCCc2ccccc21 | -7.14 |
| O=C(CNC(=O)c1cccs1)OCC(=O)c1ccc(Br)cc1 | 5.62 |
| Cc1ccc(-n2nc3c(c2NC(=O)c2ccco2)CS(=O)C3)cc1 (centres unmarked) | -8.69 |
| N#Cc1c(Cl)nsc1NCCN1CCOCC1 | 15.4 |
| Cc1cc(C)c(S(=O)(=O)NCC(CCC(=O)O)C(F)(F)F)c(C)c1 (centres unmarked) | 3.41 |
| C(=N\c1nccs1)/c1cccnc1 | 0.336 |
| CC1(C)NC(=O)N(CC(O)CN2C(=O)NC(C)(C)C2=O)C1=O | 17.2 |
